In PubChem BioAssay (Tox21):
“And” between values parts separate entries of the source, which are not always exact repeats. Identical values can stand only once. The inconclusive results got no clear call from the source; some entries with a clear call stand among them for comparison. Potencies beside an inconclusive call are fits to weak or partial responses and may not hold up. The source made the active and inactive calls. Calls follow the shape of the dose curve; as a rule, active = well fitted inhibition curve with a large enough effect in the repeat runs; inconclusive = weak or mixed curves; inactive = flat fitted curve, though single readings scatter.
Potency is read from the fitted curve at half-maximal effect; tags tell the direction and shape of the fitted curve.

Each compound was assayed against Luciferin 4-monooxygenase (Photinus pyralis) (UniProt P08659) (assay: qHTS assay to identify small molecule inhibitors of firefly luciferase (AID 1224835; also: nearly all actives have a fitted effect of over 25% in size)). Conditions: purified P. pyralis luciferase, luminescence inhibition; series mostly up to 115 µM.
Chain of UniProt P08659 (P08659 whole entry, looked up): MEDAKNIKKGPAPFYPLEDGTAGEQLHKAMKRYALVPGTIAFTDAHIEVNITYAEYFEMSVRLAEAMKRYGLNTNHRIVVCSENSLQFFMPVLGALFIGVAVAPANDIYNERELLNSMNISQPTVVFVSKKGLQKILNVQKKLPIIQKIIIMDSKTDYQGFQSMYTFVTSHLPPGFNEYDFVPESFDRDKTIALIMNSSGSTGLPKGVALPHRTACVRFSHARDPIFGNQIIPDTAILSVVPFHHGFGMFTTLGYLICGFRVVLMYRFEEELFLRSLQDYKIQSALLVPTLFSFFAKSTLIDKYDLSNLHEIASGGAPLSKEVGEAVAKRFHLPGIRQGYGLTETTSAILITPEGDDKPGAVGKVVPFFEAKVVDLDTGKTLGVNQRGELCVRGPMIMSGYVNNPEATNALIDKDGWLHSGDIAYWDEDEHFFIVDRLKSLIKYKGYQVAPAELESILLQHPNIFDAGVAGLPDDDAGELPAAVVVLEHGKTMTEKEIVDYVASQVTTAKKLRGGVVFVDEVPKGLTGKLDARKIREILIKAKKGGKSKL
Text: U.S. Tox21 Program National Center for Advancing Translational Sciences [NCATS] NIH Chemical Genomics Center [NCGC] U.S. Environmental Protection Agency [EPA] National Institutes of Environmental Health Sciences [NIEHS] National Toxicology Program [NTP] U.S. Food and Drug Administration [FDA] Tox21 Assay Overview: Firefly (Photinus pyralis) luciferase is one of the most commonly used transcriptional reporters. Firefly luciferase reporter-gene assays are generally considered one of the most sensitive assay types (Wood, 1995; Wood, 1998). However, it was initially observed, in 1991, by Thompson et al., that compounds that resemble the substrates of firefly luciferase (FLuc) can act as competitive inhibitors of the enzyme, and that these compounds, upon interaction with luciferase in the cell, can actually stabilize the protein and increase its half-life. Previous profiling work by other groups to determine the prevalence of compounds that affect FLuc enzymatic activity (PubChem AID 411) identified that ~3% of the MLSMR library (then at ~72K) inhibited FLuc. […] Thus the Tox21 10K library is profiled for activity against FLuc using a biochemical assay of purified FLuc and KM concentrations of FLuc substrates (D-luciferin and ATP).
These assay plates were then treated with 23nL of compound or DMSO using a Kalypsys pin tool, which allows for delivery of a 6-point interplate titration of each compound to the assay plate (quantitative HTS.) 1 uL of firefly luciferase mix (containing 50 mM Tris acetate, pH 7.6, 0.04 uM P. pyralis luciferase, 0.01% Tween, 0.05% BSA and dH2O) was then delivered by FRD to each well. Luciferase activity was then measured using a ViewLux CCD imager.
`COc1cc(Cl)ccc1Oc1ccc(Cl)cc1Cl` was tested, and the Potency was inconclusive: 38.8 µM [inhibitor, partial curve].
In the case of `CCCCC(CC)CCC(CC(C)C)OS(=O)(=O)O` (stereo not given), the Potency is reported as “inactive”.
`COC(=O)/C=C/C(C)=C\C=C\C(C)=C\C=C\C=C(C)\C=C\C=C(C)\C=C\C(=O)O` was tested, and the Potency was inconclusive: 63.3 µM [inhibitor, partial curve].
In the case of `Cc1c(F)cc2c(=O)c(C(=O)O)cn3c2c1CCC3C` (stereo not given), the Potency is reported as “inactive”.
With `COc1ccc(-c2cc(=O)c3c(O)cc(O[C@@H]4O[C@H](CO[C@@H]5O[C@@H](C)[C@H](O)[C@@H](O)[C@H]5O)[C@@H](O)[C@H](O)[C@H]4O)cc3o2)cc1O` the Potency was inconclusive: 27.5 µM [inhibitor, partial curve].
`CCOC(=O)c1ccc(N(C)C)cc1` was tested, and the Potency was active: 35.6 µM.
`CN1CCN(C(c2ccccc2)c2ccccc2)CC1` was tested, and the Potency was “inactive”.
In the case of `Cc1ccc(C)c(OCCCC(C)(C)C(=O)O)c1`, the Potency is reported as inconclusive: 71 µM [inhibitor, partial curve, poor fit].
In the case of `O=C(O)CCCC[P+](c1ccccc1)(c1ccccc1)c1ccccc1`, the Potency is reported as “inactive”.
In the case of `CCOC(=O)C(Br)c1ccccc1` (stereo not given), the Potency is reported as inconclusive: 35.6 µM [inhibitor, partial curve, poor fit].
In the case of `COc1cccc(O)c1`, the Potency is reported as “inactive”.
For `CCCCCCCC(=O)OCC(COC(=O)CCCCCCC)OC(=O)CCCCCCC`, the Potency was “inactive”.
In the case of `N=C(N)S(=O)O`, the Potency is reported as “inactive”.
In the case of `Oc1ccc2c(c1)OC[C@@H](N1CCC(O)(c3ccc(F)cc3)CC1)[C@H]2O`, the Potency is reported as active: 1.55 µM.
In the case of `CCCCCCCCCCCCCCO`, the Potency is reported as inconclusive: 28.3 µM [inhibitor, full curve].
For `COc1ccnc2c1CCCCC2S(=O)c1nc2ccccc2[nH]1` (stereo not given), the Potency was inconclusive: 34.7 µM [inhibitor, partial curve].
`CCCCCCCCS(=O)(=O)Cl` was tested, and the Potency was “inactive”.
In the case of `NC(=O)COCCN1CCN(C(c2ccccc2)c2ccc(Cl)cc2)CC1` (stereo not given), the Potency is reported as “inactive”.
In the case of `Nc1ccc(N)c2c1C(=O)c1ccccc1C2=O`, the Potency is reported as active: 17.8 µM.
In the case of `O=C(c1ccccc1)c1ccc2n1CCC2C(=O)O` (stereo not given), the Potency is reported as inconclusive: 12.3 µM [inhibitor, full curve].
`O=C[O][Al]([O]C=O)[O]C=O` was tested, and the Potency was active: 63.3 µM.
In the case of `CC(Cl)C(Cl)Cl` (stereo not given), the Potency is reported as inconclusive: 78.4 µM [inhibitor, single point].
In the case of `O=C(c1ccc(O)cc1)c1ccc(O)cc1`, the Potency is reported as inconclusive: 71 µM [inhibitor, partial curve].
For `CN1CCN(C2=Nc3ccccc3Sc3ccc(Cl)cc32)CC1`, the Potency was inconclusive: 30.9 µM [inhibitor, partial curve].
In the case of `CC(C)c1ccccc1C(C)C`, the Potency is reported as inconclusive: 79.7 µM [inhibitor, partial curve, poor fit].
With `COc1ccccc1OCC(O)COC(N)=O` (stereo not given) the Potency was “inactive”.
For `CCO[C@H](Cc1ccc(OCCc2ccc(OS(C)(=O)=O)cc2)cc1)C(=O)O`, the Potency was inconclusive: 43.6 µM [inhibitor, single point].
`CCCCCCCCCCCCCCOS(=O)(=O)O` was tested, and the Potency was inconclusive: 89.4 µM [inhibitor].
With `COC(=O)Nc1ccc(Cl)c(Cl)c1` the Potency was inconclusive: 50 µM [inhibitor, partial curve].
In the case of `CCCCCCCCCCCBr`, the Potency is reported as “inactive”.
`O=C1c2ccccc2CCc2ccccc21` was tested, and the Potency was inconclusive: 36.3 µM [inhibitor, full curve].
With `O=C(O)c1cc(O)c(O)c(O)c1` the Potency was inconclusive: 71.7 µM [inhibitor, partial curve] and inconclusive: 30.9 µM [inhibitor, partial curve].
For `O=C1c2ccccc2C(=O)C1c1ccccc1`, the Potency was inconclusive: 30.9 µM [inhibitor, partial curve].
With `c1ccc(CCNc2nc(-c3ccccc3)cs2)cc1` the Potency was active: 3.47 µM.
`CCCCCCCCCCCCOCCOS(=O)(=O)O` was tested, and the Potency was inconclusive: 89.4 µM [inhibitor, single point].
In the case of `COCCCCCCCCOCCC[Si](C)(O[Si](C)(C)C)O[Si](C)(C)C`, the Potency is reported as “inactive”.
In the case of `Cc1ccc(C)o1`, the Potency is reported as “inactive”.
`CCCCCCCCCCOS(=O)(=O)O` was tested, and the Potency was inconclusive: 89.1 µM [inhibitor, single point].
For `O=C(O)c1ccc(C(=O)O)c(C(=O)O)c1`, the Potency was inconclusive: 35.6 µM [inhibitor, single point].
For `Clc1cc(Cl)c2c(c1)N=C1CCCCCN1C2`, the Potency was inconclusive: 38.9 µM [inhibitor, single point].
